Measured values reported in the BET-seq Pho4 binding data (Le et al. 2018).
The other results are listed elsewhere or left out. The energies were worked out here from pooled read counts, against the library average; single values are noisy.

Molecular target: T1, Pho4 (S. cerevisiae) (UniProt P07270)
T1 sequence: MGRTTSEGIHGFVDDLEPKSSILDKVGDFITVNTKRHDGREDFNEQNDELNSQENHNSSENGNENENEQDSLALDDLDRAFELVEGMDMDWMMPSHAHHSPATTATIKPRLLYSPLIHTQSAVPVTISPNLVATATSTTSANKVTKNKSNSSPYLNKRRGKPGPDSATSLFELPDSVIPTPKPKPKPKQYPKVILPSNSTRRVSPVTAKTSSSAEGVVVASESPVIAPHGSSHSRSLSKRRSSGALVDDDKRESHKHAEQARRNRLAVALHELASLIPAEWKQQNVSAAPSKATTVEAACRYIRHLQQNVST
Experiment: relative binding free energy (BET-seq); higher = weaker binding
Conditions: reference: library average

Sequence | relative binding free energy
TGCGTCACGTGCGAGG | 0 kcal/mol
ATGTGCACGTGAGAAT | 0.23 kcal/mol
TTCTTCACGTGTCGTT | 0.13 kcal/mol
GGCGCCACGTGAGTGT | 0.18 kcal/mol
TTAGGCACGTGATTTG | -0.07 kcal/mol
CATTCCACGTGTTGTT | 0.19 kcal/mol
GCGGGCACGTGCAGTT | 0.06 kcal/mol
TAAGGCACGTGTTTAG | -0.22 kcal/mol
TGGGTCACGTGAACGT | 0.22 kcal/mol
GGTGTCACGTGTGGGC | 0.21 kcal/mol
ATTGCCACGTGGATGG | -0.13 kcal/mol
GTGTACACGTGGGTAA | -0.05 kcal/mol
GGCATCACGTGGATTG | 0.11 kcal/mol
GGTGACACGTGTATTA | 0.17 kcal/mol
AGGATCACGTGGAGGC | 0.12 kcal/mol
TGCACCACGTGGGGTG | -0.29 kcal/mol
GTTTACACGTGGCGCG | 0.05 kcal/mol
GTTATCACGTGTTATA | 0.18 kcal/mol
GTATTCACGTGTTGGT | 0.29 kcal/mol
AATTCCACGTGTGGTG | 0.18 kcal/mol
GTGCACACGTGTGTGA | 0.09 kcal/mol
ATGATCACGTGGAGGA | 0.27 kcal/mol
TATAGCACGTGTGCGT | -0.07 kcal/mol

Sequence | relative binding free energy
TTTAGCACGTGGCTGT | -0.16 kcal/mol
ATATGCACGTGGCGAG | -0.07 kcal/mol
GGTATCACGTGTCGGT | 0.31 kcal/mol
ACAGTCACGTGGGTTA | -0.14 kcal/mol
GGAGGCACGTGATATA | 0.17 kcal/mol
GCAGACACGTGGGGGG | -0.01 kcal/mol
TTGGACACGTGGCCGT | -0.06 kcal/mol
GAGAGCACGTGTATTT | 0 kcal/mol
GAAAGCACGTGCGTGG | -0.02 kcal/mol
ATGATCACGTGCGGGT | -0.07 kcal/mol
TTTAACACGTGAGTAA | 0.21 kcal/mol
ATAGGCACGTGATAAG | -0.06 kcal/mol
ATAGGCACGTGTCGAT | -0.14 kcal/mol
GTTCGCACGTGAAGTG | 0.26 kcal/mol
TGTGACACGTGATAGC | 0.18 kcal/mol
AGGGTCACGTGTCTTG | 0.04 kcal/mol
GTGGGCACGTGACTTA | 0.06 kcal/mol
TTAGTCACGTGGTCTA | 0.05 kcal/mol
CTTGTCACGTGTAAAG | 0.08 kcal/mol
TTCTGCACGTGTGTTC | 0.03 kcal/mol
TGGAACACGTGAGGTG | 0.24 kcal/mol
CTAATCACGTGGGGAG | 0.05 kcal/mol
ATGGGCACGTGTAAAA | 0 kcal/mol

Sequence | relative binding free energy
TAGGCCACGTGATAGT | 0.07 kcal/mol
ATAAGCACGTGGAGTT | -0.09 kcal/mol
GAGTTCACGTGTGCAT | 0.24 kcal/mol
TAGGTCACGTGTACTT | 0.2 kcal/mol
AGGTACACGTGAGGCT | 0.25 kcal/mol
GTCAGCACGTGGATGG | 0 kcal/mol
CATGTCACGTGATCTG | 0.19 kcal/mol
ATGTGCACGTGGTAAA | 0 kcal/mol
TTCTGCACGTGTGAGA | 0.12 kcal/mol
AGGGACACGTGGGATC | -0.03 kcal/mol
AGTTACACGTGAGTTA | 0.2 kcal/mol
TAATTCACGTGATTTA | 0.25 kcal/mol
AGAGCCACGTGTGGTG | 0.01 kcal/mol
TGAATCACGTGTACGG | 0.36 kcal/mol
GAGTGCACGTGGTTTA | -0.12 kcal/mol
GGTGCCACGTGCGAGG | -0.08 kcal/mol
TTTAGCACGTGTTCGG | -0.11 kcal/mol
GTGCTCACGTGTAGGA | 0.13 kcal/mol
ATTATCACGTGATGGA | 0.38 kcal/mol
TATGACACGTGATGGT | 0.03 kcal/mol
AGGGACACGTGATAGT | 0 kcal/mol
AGCGTCACGTGGCGGT | -0.06 kcal/mol
GGGCACACGTGGTTAT | 0.08 kcal/mol

Sequence | relative binding free energy
TTATGCACGTGAGTTC | 0.15 kcal/mol
AGTGTCACGTGGGTTT | -0.02 kcal/mol
GCGGTCACGTGGTGGG | 0.13 kcal/mol
CGCGACACGTGGGAGG | -0.08 kcal/mol
AAGTGCACGTGTGGGA | 0.12 kcal/mol
CTCATCACGTGTGTTG | 0.11 kcal/mol
GTTGACACGTGGGCTA | -0.11 kcal/mol
GTGTGCACGTGCGGCA | -0.08 kcal/mol
TGGGCCACGTGGCGTT | -0.21 kcal/mol
TGTCACACGTGGGAAT | 0.08 kcal/mol
TCTAGCACGTGTTGAG | -0.15 kcal/mol
TTTGGCACGTGTTGGT | 0.07 kcal/mol
AGGGTCACGTGAGATG | 0.28 kcal/mol
GATTTCACGTGGGCTG | 0.31 kcal/mol
TTAAACACGTGGCAGT | 0.06 kcal/mol
AACGGCACGTGGATGG | -0.08 kcal/mol
CTTAGCACGTGTTGGG | 0.02 kcal/mol
TGCGGCACGTGGTAGC | -0.25 kcal/mol
GTTTTCACGTGTAAGG | 0.4 kcal/mol
ATGGGCACGTGGGTCC | -0.26 kcal/mol
ATAGTCACGTGTGGAG | 0.09 kcal/mol
ATTGTCACGTGTGCTG | 0.06 kcal/mol
GGGTCCACGTGGGTTG | -0.06 kcal/mol

Sequence | relative binding free energy
TTAAGCACGTGATATG | 0.03 kcal/mol
GCACGCACGTGGGGGT | -0.17 kcal/mol
GTCGACACGTGTTATG | 0.08 kcal/mol
TAAAACACGTGAGTGT | 0.23 kcal/mol
ATGGTCACGTGCGCTG | -0.01 kcal/mol
ATTATCACGTGGGAAA | 0.21 kcal/mol
TTGTACACGTGATCTT | 0.14 kcal/mol
TGGAACACGTGGGACT | -0.01 kcal/mol
GTGGGCACGTGTCAGT | -0.09 kcal/mol
ATAGCCACGTGGGTTT | -0.18 kcal/mol
TTGGGCACGTGTTTAA | 0.03 kcal/mol
AGGGACACGTGTGGCG | 0.01 kcal/mol
GCGCACACGTGTGGTG | 0.18 kcal/mol
GTTCTCACGTGTGTTT | 0.41 kcal/mol
TCTGTCACGTGTGGTT | 0.2 kcal/mol
GGGTTCACGTGGCCAG | 0.16 kcal/mol
CTTGTCACGTGGTTTT | 0.04 kcal/mol
ACGGTCACGTGTGAGA | 0.27 kcal/mol
TGAGACACGTGGGATA | -0.07 kcal/mol
TGGTTCACGTGCAGGG | 0.33 kcal/mol
TTTTACACGTGATAGC | 0.22 kcal/mol
GTGTCCACGTGTCTGT | 0.01 kcal/mol
GTTTGCACGTGTCAAG | 0.11 kcal/mol
